# According to the supplement of paper PMC8728848:
# This is one part of the list.
# B1: InvD YPIII (Yersinia pseudotuberculosis), B1JSC0 (protein)
# chain: MIKYFSFFKKPEPIVGILPNRQSHHILPTHIRRVAWGTLLLQLFIPLSVSFSPAIAAMKASKADTMVSYSSTEPYVLGSGETVAMVAKKYGITVDELKKINIYRTFSRPFTALTTGDEIDIPRKASPFSVDNNKDNRLSVENTLAGHAVAGATALSNGDVAKSGERMVRSAASNEFNNSAQQWLSQFGTARVQLNINDDFHLDGSAADVLIPLYDNEKSILFTQLGARNKDSRNTVNMGAGVRTFQGNWMYGANTFFDNDLTGKNRRIGVGAEAWTDYLKLSANNYFGITDWHQSRDFIDYNERPANGYDLRAEAYLPSYPQLGGKAMYEKYRGDDVALFGKDNRQKNPHAITAGVNYTPIPLVTIGAEHRAGKGGQNDSNINFQLNYRLGETWQSHIDPSAVAASRTLAGSRYDLVERNNHIVLDYQKQNLVRLSLPDSLAGDPFSQLSVTAQVTATHGLERIDWQSAELMAAGGVLKQTSKNGLEITLPEYQMNRTGGNSYILNAIAYDTQGNASSQASMLITVNAQKINIANSTLVAVPINIEANNSDTSVVTLTLKDDNNIPVTGQDVTFLSPLGTLSAMTDSGNGVYTATLTAGTVSGTTAVSSNINGSALDMTPATVTLNGNSGELSITHSMLVAAPVNIEANGSDTSVVTLTLRDSNNNPVTGQTVTFAGTLGTLGAVTEGSSGVYTATLTAGIMVGTSSITASVNSTALGVTPATVTLNGDSGNLSTTNSTLVAAPVNIEANSSDTSVVTLTLRDNNNNPVTGQTVVFTSTLGTLGNVTEQASGVYTATLTAGTVSGVASLSVSVGGNALGVTPATVTLNGDSGNLSTTNSTLVAAPVNIEANSSDTSVVTLTLRDNNNNPVTGQTVNFAGTLGTLGTVSEGSSGVYTTTLTAGTVAGVASLSVNVGGNALGVTPATVTLNGNSGNLSATNSTLVAAPVNIEANSSDTSVVTLTLRDNNNNPVTGQTVAFTSTLGTLGNVTEQASGVYTATLTAGTVSGVASLSVSVNSNALGVTPATVTLNGDSGNLSTTNSTLVAAPVNIEANSSDTSVVTLTLRDNNNNPVTGQTVAFTSTLGTLGNVTEQASGLYTATLTAGTVSGVASLSVNVGGNALGVTPATVTLNGDSGNLSATNSTLVAAPVNIEANSSDTSVVTLTLRDNNNNPVTGQTVAFTSTLGTLGNVTEQASGLYTATLTAGTVSGVASLSVNVGGTALGVTPATVTLNGDSGNLSTTNSTLVAAPVNIEANSSDTSVVTLTLRDNNNNPVTGQTVAFTSTLGTLGNVTEQASGLYTATLTAGTVSGVASLSVSVNSTALGVTPATVTLNGDSGNLSTTNSTLVAAPVNIEANSSDTSVVTLTLRDNNNNPVTGQTVAFTSTLGTLGNVTEQASGVYTATLTAGTVAGVASLSVNVGGNALGVTPATVTLNGDSGNLSTTNSTLVAAPVNIEANSSDTSVVTLTLRDNNNNPVTGQTVAFTSTLGTLGNVTEQASGVYTATLTAGTVSGVASLSVSVGSSALGVTPATVTLNGDSGNLSTTNSTLVAAPVNIEANNSDTSVVTLTLRDNNNNPVTGQTVAFTSTLGTLGNVTEQASGVYTATLTAGTVSGVASLSVSVNSNALGVTPATVTLNGDSGNLSTTNSTLVAAPVNIEANSSDTSVVTLTLRDNNNNPVTGQTVVFTSTLGTLGNVTEQASGLYTATLTAGTVSGVASLSVSVGGNALGVTGNITLAPGALDAARSILAVNKPSINADDRIGSTITFTAQDAQGNAITGLDIAFMTDLENSQIMTLVDHNDGTYTANINGTQTGIANIAVQSSGATIAGLAATMVTITPGAWNTTQATPVMTVALPITTCQSSSGVYKRYYIGIVTHELYDNYGNEISGILTYNLGAGRYTTVTSQNSSVSGSNGLTRRSNSPVSHFILTSDAYTSQAACYAERIANVNVTITVTAITDDFKTSAVNKVFILGTGSN
# What was measured:
# Test in all cases: glycan array binding signal (z-score within array); higher = stronger binding
# Conditions in all cases: glycan notation: IUPAC condensed, linker removed
# [1] = biological target: Neu5Ac(a2-3)Gal6S(b1-4)[Fuc(a1-3)]GlcNAc
# Outline: (§1)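 Glycan array data came from 3228 arrays in the Consortium for Functional Glycomics database, and only arrays with an available protein sequence were kept. Glycan names were put into IUPAC-condensed notation, and columns mapping to the same glycan were averaged. The binding signal is a within-array Z-score, averaged across arrays of one protein sequence run at different concentrations or buffers and across linkers. A negative Z-score can be read as non-binding.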
# [2] = biological target: Neu5Ac(a2-3)GalNAc
# Outline: as §1
# [3] = biological target: Neu5Ac(a2-3)GalNAc(b1-4)GlcNAc
# Outline: as §1
# [4] = biological target: Neu5Ac(a2-3)[GalNAc(b1-4)]Gal(b1-4)Glc
# Outline: as §1
# [5] = biological target: Neu5Ac(a2-3)[GalNAc(b1-4)]Gal(b1-4)GlcNAc
# Outline: as §1
# [6] = biological target: Neu5Ac(a2-3)[GalNAc(b1-4)]Gal(b1-4)GlcNAc(b1-3)GalNAc
# Outline: as §1
# [7] = biological target: Neu5Ac(a2-3)[Neu5Ac(a2-6)]GalNAc
# Outline: as §1
# [8] = biological target: Neu5Ac(a2-6)Gal
# Outline: as §1
# [9] = biological target: Neu5Ac(a2-6)Gal(b1-3)GlcNAc(b1-3)[Gal(b1-4)GlcNAc(b1-6)]Gal(b1-4)Glc
# Outline: as §1
# [10] = biological target: Neu5Ac(a2-6)Gal(b1-4)Glc
# Outline: as §1
# [11] = biological target: Neu5Ac(a2-6)Gal(b1-4)GlcNAc
# Outline: as §1
# [12] = biological target: Neu5Ac(a2-6)Gal(b1-4)GlcNAc(b1-2)Man
# Outline: as §1
# [13] = biological target: Neu5Ac(a2-6)Gal(b1-4)GlcNAc(b1-2)Man(a1-3)Man(b1-4)GlcNAc(b1-4)GlcNAc
# Outline: as §1
# [14] = biological target: Neu5Ac(a2-6)Gal(b1-4)GlcNAc(b1-2)Man(a1-3)[Gal(b1-4)GlcNAc(b1-2)Man(a1-6)]Man(b1-4)GlcNAc(b1-4)GlcNAc
# Outline: as §1
# [15] = biological target: Neu5Ac(a2-6)Gal(b1-4)GlcNAc(b1-2)Man(a1-3)[GlcNAc(b1-4)][Neu5Ac(a2-6)Gal(b1-4)GlcNAc(b1-2)Man(a1-6)]Man(b1-4)GlcNAc(b1-4)GlcNAc
# Outline: as §1
# [16] = biological target: Neu5Ac(a2-6)Gal(b1-4)GlcNAc(b1-2)Man(a1-3)[Man(a1-6)]Man(b1-4)GlcNAc(b1-4)GlcNAc
# Outline: as §1
# [17] = biological target: Neu5Ac(a2-6)Gal(b1-4)GlcNAc(b1-2)Man(a1-3)[Neu5Ac(a2-3)Gal(b1-4)GlcNAc(b1-2)Man(a1-6)]Man(b1-4)GlcNAc(b1-4)GlcNAc
# Outline: as §1
# [18] = biological target: Neu5Ac(a2-6)Gal(b1-4)GlcNAc(b1-2)Man(a1-3)[Neu5Ac(a2-6)Gal(b1-4)GlcNAc(b1-2)Man(a1-6)]Man(b1-4)GlcNAc(b1-4)GlcNAc
# Outline: as §1
# [19] = biological target: Neu5Ac(a2-6)Gal(b1-4)GlcNAc(b1-2)Man(a1-3)[Neu5Ac(a2-6)Gal(b1-4)GlcNAc(b1-2)Man(a1-6)]Man(b1-4)GlcNAc(b1-4)[Fuc(a1-6)]GlcNAc
# Outline: as §1
# [20] = biological target: Neu5Ac(a2-6)Gal(b1-4)GlcNAc(b1-2)Man(a1-6)Man(b1-4)GlcNAc(b1-4)GlcNAc
# Outline: as §1
# [21] = biological target: Neu5Ac(a2-6)Gal(b1-4)GlcNAc(b1-2)Man(a1-6)[Gal(b1-4)GlcNAc(b1-2)Man(a1-3)]Man(b1-4)GlcNAc(b1-4)GlcNAc
# Outline: as §1
# [22] = biological target: Neu5Ac(a2-6)Gal(b1-4)GlcNAc(b1-2)Man(a1-6)[GlcNAc(b1-2)Man(a1-3)]Man(b1-4)GlcNAc(b1-4)GlcNAc
# Outline: as §1
binder,measurement,setting,value
B1,glycan array binding signal (z-score),[1],-0.136
same,glycan array binding signal (z-score),[2],0.092
same,glycan array binding signal (z-score),[3],-0.005
same,glycan array binding signal (z-score),[4],-0.133
same,glycan array binding signal (z-score),[5],-0.286
same,glycan array binding signal (z-score),[6],0.578
same,glycan array binding signal (z-score),[7],-0.196
same,glycan array binding signal (z-score),[8],-0.331
same,glycan array binding signal (z-score),[9],-0.104
same,glycan array binding signal (z-score),[10],-0.201
same,glycan array binding signal (z-score),[11],-0.215
same,glycan array binding signal (z-score),[12],-0.082
same,glycan array binding signal (z-score),[13],-0.111
same,glycan array binding signal (z-score),[14],-0.301
same,glycan array binding signal (z-score),[15],-0.322
same,glycan array binding signal (z-score),[16],-0.236
same,glycan array binding signal (z-score),[17],0.032
same,glycan array binding signal (z-score),[18],0.162
same,glycan array binding signal (z-score),[19],0.467
same,glycan array binding signal (z-score),[20],-0.284
same,glycan array binding signal (z-score),[21],-0.275
same,glycan array binding signal (z-score),[22],0.111
